From paper PMC4336329 (PLoS ONE, 2015)
The whole screen tested about 310,000 compounds, of which about 2,200 (0.71%) showed an effect of 50% or more. Effects have a minus sign here. The list shows a part of the results.

Target: human ether-à-go-go-related gene (hERG) potassium channel (human, UniProt Q12809)
Assay: primary screen, population patch clamp on CHO cells stably expressing hERG

Sequence of human ether-à-go-go-related gene (hERG) potassium channel (Q12809 whole entry, looked up): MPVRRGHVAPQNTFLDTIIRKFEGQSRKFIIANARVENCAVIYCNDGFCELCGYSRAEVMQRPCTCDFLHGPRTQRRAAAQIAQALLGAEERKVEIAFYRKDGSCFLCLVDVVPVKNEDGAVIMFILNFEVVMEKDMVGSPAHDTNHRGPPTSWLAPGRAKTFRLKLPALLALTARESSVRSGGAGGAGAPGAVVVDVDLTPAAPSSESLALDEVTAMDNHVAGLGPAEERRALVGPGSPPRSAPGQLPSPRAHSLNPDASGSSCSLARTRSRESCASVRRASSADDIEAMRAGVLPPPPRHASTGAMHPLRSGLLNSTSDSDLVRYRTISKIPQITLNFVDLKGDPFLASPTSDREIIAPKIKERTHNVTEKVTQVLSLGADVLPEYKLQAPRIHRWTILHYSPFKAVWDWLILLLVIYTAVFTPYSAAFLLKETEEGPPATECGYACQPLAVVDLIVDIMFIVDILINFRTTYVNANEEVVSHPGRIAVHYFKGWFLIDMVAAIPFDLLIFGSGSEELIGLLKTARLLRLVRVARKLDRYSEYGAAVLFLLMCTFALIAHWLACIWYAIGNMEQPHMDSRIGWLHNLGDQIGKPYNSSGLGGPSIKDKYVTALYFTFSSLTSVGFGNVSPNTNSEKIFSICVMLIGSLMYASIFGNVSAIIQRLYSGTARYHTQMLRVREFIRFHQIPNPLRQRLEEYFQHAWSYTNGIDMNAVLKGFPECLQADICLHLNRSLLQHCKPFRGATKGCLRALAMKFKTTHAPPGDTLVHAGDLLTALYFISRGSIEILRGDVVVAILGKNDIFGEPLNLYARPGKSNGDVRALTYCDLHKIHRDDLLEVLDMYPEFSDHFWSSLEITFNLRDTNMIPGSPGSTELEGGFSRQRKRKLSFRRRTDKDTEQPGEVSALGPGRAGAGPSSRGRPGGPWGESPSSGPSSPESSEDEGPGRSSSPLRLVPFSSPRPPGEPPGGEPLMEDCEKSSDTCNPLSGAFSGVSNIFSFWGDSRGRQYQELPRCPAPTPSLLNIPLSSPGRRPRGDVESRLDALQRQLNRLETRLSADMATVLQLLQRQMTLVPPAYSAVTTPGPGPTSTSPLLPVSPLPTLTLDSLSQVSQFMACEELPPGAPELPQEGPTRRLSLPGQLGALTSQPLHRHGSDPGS

| Compound | hERG current change (%, negative = inhibition) at 1uM |
| --- | --- |
| Cc1ccc(-c2ccc(C#N)c(=O)n2CC(=O)N(C)C)cc1 | 7.14% |
| CN1CCN(S(=O)(=O)c2ccc(Nc3cccc(Cl)c3)c([N+](=O)[O-])c2)CC1 | 1.38% |
| COc1ccc(C(=O)N[C@H](C(=O)NCc2ccc(C)cc2)C(C)C)cc1 | 16.2% |
| CCOC(=O)C1(Cc2ccc(Cl)cc2)CCN(C(=O)c2cnc(C)cn2)CC1 | -14.5% |
| COc1ccc(NC2=C(C(C)=O)C(c3ccccc3)C(C(C)=O)C(C)(O)C2)cc1 (stereo not shown) | 1.11% |
| COc1ccccc1OCCOC(=O)Nc1ccccc1 | 19.6% |
| COC(=O)c1sc(-c2ccc(C(C)(C)C)cc2)cc1NC(=O)/C=C/C(=O)O | 2.94% |
| CCOC(=O)c1[nH]c2ccc(OC)cc2c1NC(=S)N1CCN(c2ccccc2)CC1 | 7.6% |
| O=C(NCc1ccccc1)/C(=C/c1ccc([N+](=O)[O-])cc1)NC(=O)c1ccco1 | -31% |
| O=C(CCn1c(=O)oc2ccccc21)NC1=NCCS1 | 7.01% |
| Cc1ccc(CNC(=O)C2CCCN(S(=O)(=O)N3CC(C)CC(C)C3)C2)cc1 (stereo not shown) | 9.66% |
| O=C(CC12CC3CC(CC(Br)(C3)C1)C2)Nc1nncs1 | 14.1% |
| COC(=O)CSc1nc2sc(C)c(C)c2c(=O)n1C | -8.37% |
| O=C(c1cc(S(=O)(=O)NCc2ccco2)ccc1Br)N1CCOCC1 | -7.74% |
| O=C(COC(=O)[C@@H]1CCCN1C(=O)c1cccs1)Nc1ccc(F)cc1[N+](=O)[O-] | -10% |
| CCOC(=O)c1c(NC(=O)C2CCCCC2)sc2c1CCN(CC)C2.Cl | -0.948% |
| Cc1ccccc1NC(=O)C1CCCN(S(=O)(=O)c2ccc3c(c2)C(C)(C)C(=O)N3C)C1 (stereo not shown) | 15.6% |
| CN(C)S(=O)(=O)c1cccc(C(=O)N=C2N=C3C=CC(Cl)=CN3Cc3ccccc32)c1 | 4.52% |
| O=C1NCCN1C(=O)c1ccco1 | 7.74% |
| O=C(O)CSCC(=O)N1CCCN(c2nc3ccc(Cl)cc3s2)CC1 | 8.31% |
| O=C(CSc1ncn[nH]1)Nc1ccc(OCc2ccccc2)cc1 | 4.29% |
| O=[N+]([O-])c1cc(S(=O)(=O)N2CCCC2)ccc1NCCc1ccccc1 | 13.5% |
| CCOC(=O)c1c(S(=O)(=O)NCC(=O)Nc2ccc(C)cc2)c(C)n(C)c1C | 12.4% |
| COc1ccc(-n2c(=O)[nH]c3cc(C(=O)NCCc4ccccc4)ccc3c2=O)cc1OC | 11.4% |
| O=C(Cn1nc(Cc2cccnc2)c2ccccc2c1=O)Nc1cc(F)ccc1F | 2.53% |
| CCCC1(C(=O)OCC)NC(c2cc(OC)c(OC)c(OC)c2)C2C(=O)N(CC)C(=O)C21 (stereo not shown) | 16.1% |
| CC1(C)CC(=O)C2=C(C1)N(c1ccc(F)cc1)C(=O)CC2c1ccsc1 (stereo not shown) | -8.49% |
| Cc1cc(C)cc(OCC(=O)NC(C)c2ccccc2)c1 (stereo not shown) | 11.8% |

| Compound | hERG current change (%, negative = inhibition) at 1uM |
| --- | --- |
| NC(=O)CC(NC(=O)Cc1ccc(Cl)cc1)c1ccc(NC2CCCCCCC2)c([N+](=O)[O-])c1 (stereo not shown) | 16.3% |
| COCCn1c(SCC(=O)Nc2ccccc2OC)nc2c(oc3ccccc32)c1=O | -6.69% |
| N#Cc1cc2c(nc1SCC(=O)Nc1cc(Cl)ccc1Cl)C1CCN2CC1 | -12.9% |
| CCOC(=O)C1CCN(C(=O)Cn2nc(C)n3nc(-c4ccc(OC)cc4)cc3c2=O)CC1 | 12.1% |
| O=C(NCCCN1CCOCC1)C(c1ccccc1)c1ccccc1 | 14.5% |
| Fc1ccc(C2CCCN2Cc2nc(Cc3ccccc3F)no2)cc1 (stereo not shown) | 5.17% |
| COc1cc(CN2CCC(CO)(CCOc3ccccc3)CC2)cc(OC)c1OC | 3.71% |
| CC(=O)Nc1sc(N/N=C\c2cccc(Cl)c2)nc1-c1cccs1 | -0.333% |
| CCN1CCCC(Sc2nc3c([nH]2)c(=S)n(C)c(=O)n3C)C1 (stereo not shown) | 8.61% |
| CC(C(=O)NCc1ccccc1)N1C(=O)c2ccccc2C1=O (stereo not shown) | 14.6% |
| CCN(CC)CCN1c2ccccc2Sc2ccccc21.O=C(O)C(=O)O | -3.5% |
| NC(=O)c1cnn(-c2cc(Oc3ccccc3)ncn2)c1N | 4.14% |
| O=C(C(=C1N(Cc2ccc(Cl)nc2)CCN1Cc1ccc(Cl)nc1)[N+](=O)[O-])C(Cl)Cl | 2.72% |
| CCn1cc(C(=O)N2CCCC(N3CCN(c4ccccc4C)CC3)C2)cn1 (stereo not shown) | 6.58% |
| O=C(COC(=O)c1cc(=O)[nH]c2ccccc12)NCc1cccs1 | 5.07% |
| C/C(=N\O)c1ccc(Cl)cc1Cl | 5.29% |
| Cc1ccc(CNS(=O)(=O)c2ccc(F)c(F)c2)n1C | 14.7% |
| O=C(CN(Cc1cccs1)C(=O)c1csnn1)NC1CCCC1 | 5.83% |
| CC(c1ccco1)N(C(=O)c1ccc(F)cc1)c1ccccn1 (stereo not shown) | 17.6% |
| Cn1nnnc1Sc1ncnc2scc(-c3ccccc3)c12 | -4.67% |
| CCOC(=O)Cc1csc(NC(=O)c2cc(C)cc(C)c2)n1 | 1.67% |
| N#Cc1ccc(OCC(=O)NCCc2ccccn2)cc1 | 11.3% |
| COc1ccc(CCNc2cc(C)nc3c(-c4ccc(Cl)cc4)cnn23)cc1OC | 15.8% |
| CC1CCCN(S(=O)(=O)c2ccc(NC(=O)CN3C(=O)NC(C)(c4ccccc4)C3=O)cc2)C1 (stereo not shown) | 1.11% |
| COC(=O)C(C)n1cnc2c(nnn2-c2ccc(F)cc2)c1=O (stereo not shown) | 0.963% |
| CC(C)C(C)NC(=O)CN1C(=O)NC2(CCCc3ccccc32)C1=O (stereo not shown) | 7.28% |
| COc1ccc(C2/C=C\CN(S(=O)(=O)c3cccs3)CC(=O)N2Cc2ccc(F)cc2)cc1 (stereo not shown) | 10.8% |
